Antibody binding signal data for 40 sequences are collected here from the supplement of paper PMC10441789.

The list shows a part of the results. Antibody binding of pooled human sera (four to six donors per pool; dilution not stated) to peptides of the Trypanosoma cruzi antigen TSSA on microarrays. Quantile-normalised fluorescence in arbitrary units, mean of duplicate arrays; higher = more binding. No active / inactive call. The uninfected pools are read here as the healthy donors of the same country. The strongest signals lie near the top of the scale (about 60,000).

The assay concerns pooled sera of uninfected people, Colombia. The experiment in a line: antibody binding signal (normalised fluorescence) (arbitrary fluorescence units); higher = stronger serum antibody binding to peptide. As to the method:
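Microarray of 15-residue peptides over residues 30-55 of Trypanosoma cruzi TSSAII, each with 1 to 10 substitutions at naturally variable positions, probed with one serum pool per country.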
As to TPPSGTDNKPATGEA, the antibody binding signal is 319.

Sequence GKEKKAATGEAPSQS showed an antibody binding signal of 185.

Turning to TPPSGKEKKAAAGGT, the antibody binding signal came to 162.

TENKAAAGGTPSPSG displayed an antibody binding signal of 442.

With TDNKTAAGGTPSPPG, the antibody binding signal was 315.

In the case of KEKKPAAGETPSQPG, the antibody binding signal came out at 155.

TDNKPATGEAPSQSG: the antibody binding signal came out at 166.

On to TISTPPSGKENKTAA, for which the antibody binding signal was 724.

DKKPAAGEAPSQPGA displayed an antibody binding signal of 150.

Take SGTDKKPAAGGAPSP: the antibody binding signal came to 271.

TEKKPATGETPSPPG yielded an antibody binding signal of 158.

Turning to TEKKPATGGAPSPPG, the antibody binding signal amounted to 262.

TPPSGTDKKAATGET displayed an antibody binding signal of 457.

The sequence GKDKKAATGGAPSPP gave an antibody binding signal of 180.

Consider GTEKKPAAGGAPSPS, for which the antibody binding signal turned out to be 108.

As to TPPSGKENKAAAGGT, the antibody binding signal came out at 628.

KDNKAATGGTPSQPG returned an antibody binding signal of 187.

ENKTAAGETPSPSGA: the antibody binding signal was determined as 128.

Turning to GTDKKTAAGEAPSQP, the antibody binding signal was 927.

The sequence KKPAAGGTPSQPGAS registered an antibody binding signal of 151.

TSSTPPSGTENKTAT returned an antibody binding signal of 631.

For GKDKKAAAGEAPSPS, the antibody binding signal turned out to be 102.

In the case of KDKKAAAGGAPSQPG, the antibody binding signal worked out at 99.

The sequence ENKTATGGTPSPPGA returned an antibody binding signal of 674.

As for TDNKAATGGAPSQSG, the antibody binding signal is 209.

As for GKDKKAATGGAPSQP, the antibody binding signal was 256.

For GTEKKTATGETPSPS, the antibody binding signal worked out at 139.

Sequence PSGKDNKPATGGAPS gave an antibody binding signal of 139.

In turn, GKEKKPATGEAPSPP gave an antibody binding signal of 151.

For TPPSGKENKTAAGGA, the antibody binding signal worked out at 506.

For the sequence EKKPAAGETPSQSGA, the antibody binding signal turned out to be 493.

In turn, DNKAAAGEAPSPPGA gave an antibody binding signal of 136.

In turn, TDKKPATGEAPSQSG yielded an antibody binding signal of 277.

Consider EKKTATGETPSQPGA, for which the antibody binding signal amounted to 195.

For PPSGKDKKPAAGEAP, the antibody binding signal was found to be 262.

The sequence GTENKAATGGTPSPP returned an antibody binding signal of 414.

PSGTDKKAAAGETPS showed an antibody binding signal of 1030.

In the case of ISTPPSGTDKKAATG, the antibody binding signal amounted to 445.

Sequence TPPSGTDNKTATGGT yielded an antibody binding signal of 316.

DNKTATGETPSQPGA: the antibody binding signal worked out at 235.
